Values marked as one replicate rest on one cluster of the flow cell; about a third of the high ones do not repeat.
Each sequence was assayed on ATP (assay: switch fluorescence ratio, 500 uM ATP over buffer (Cy3 cluster intensity, sum of 5 cycles each) (fold (ratio)); higher = stronger signal-on switching upon ATP binding; sequences stand for … in TCGTCGGCAGCGTCAGATGTGTATAAGAGACAGTTTTTTTTTTTTTTTTTTTTTTTTT…TC). Settings: aptamer strand: ATP DNA aptamer (quencher-CACCTGGGGGAGTATTGCGGAGGAAGG + anchor), 100 nM annealed; ATP concentration: 500 uM; one replicate.
Outline: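 Clusters with intensities outside 100-1000 RFU were excluded. The remaining Cy3-labelled switching-strand clusters on a modified Illumina MiSeq flow-cell had been annealed to 100 nM quencher-labelled ATP aptamer and imaged in selection buffer, then after 15 min with 500 uM ATP at 22 °C, for five cycles separated by NaOH stripping and re-annealing. The fluorescence ratio, averaged per switch-domain sequence, is each cluster's summed target-cycle Cy3 intensity over its summed buffer-cycle Cy3 intensity.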
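Also: ATP exposure 15 min at 22 °C before imaging.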

Sequence | switch fluorescence ratio
TTGCGGA | 0.972
TTGCGGTCA | 1.02
TTGCGGTGCA | 1
TTGCGTGAG | 1
TTGCGTGCTA | 1.01
TTGCGTGGCT | 0.958
TTGCGTGGTC | 1.12
TTGCGTTAT | 0.991
TTGCTACGGC | 1.06
TTGCTAGGTT | 0.981
TTGCTGCCCT | 0.955
TTGCTGCCGT | 0.993
TTGCTGCTT | 0.97
TTGCTGGACA | 1.05
TTGCTGGT | 1.03
TTGCTTGGAG | 1.06
TTGCTTGGGT | 1.06
TTGCTTGTGC | 1.02
TTGGAAAAAA | 0.978
TTGGAACAGG | 0.995
TTGGAAGGAA | 1.04
TTGGACAAGG | 1.04
TTGGACTGAG | 1.02
TTGGAGCGT | 1.03
TTGGAGTGGC | 0.957
TTGGATATTA | 0.998

Sequence | switch fluorescence ratio
TTGGCAAGAT | 1.03
TTGGCATATT | 1.07
TTGGCCCTTT | 0.95
TTGGCCTCCG | 1.18
TTGGCGTGGT | 1.02
TTGGCTCAGC | 1.02
TTGGCTTTCT | 1.01
TTGGGACGAG | 1.01
TTGGGATGAC | 1.03
TTGGGATTTC | 1
TTGGGCACAT | 1.02
TTGGGCGGAC | 1.02
TTGGGCGGAT | 0.974
TTGGGCTCT | 0.977
TTGGGGCTAC | 1.38
TTGGGGGAG | 1.01
TTGGGGTCTA | 1.01
TTGGGTGAAA | 1.1
TTGGTACCAG | 1.04
TTGGTACGAC | 1.03
TTGGTCACAT | 1.01
TTGGTCCTGA | 0.926
TTGGTCGCAA | 5.9
TTGGTCGGCT | 1.04
TTGGTGAGGA | 0.973
TTGGTGATGG | 1.03

Sequence | switch fluorescence ratio
TTGGTGGCCC | 0.971
TTGGTGGGAG | 0.95
TTGGTTAGG | 0.926
TTGGTTTAG | 0.979
TTGTAAAGAG | 0.99
TTGTAAGTGC | 1.03
TTGTAAGTGT | 0.957
TTGTACCAGC | 1.06
TTGTAGCCC | 2.09
TTGTATATCC | 1.01
TTGTATTGAT | 1.01
TTGTCAATCC | 1.08
TTGTCAGAGG | 0.988
TTGTCCACCT | 1.08
TTGTCCTTGC | 1.3
TTGTCCTTT | 0.966
TTGTCGCCCG | 0.954
TTGTCGTTAA | 0.98
TTGTCTCAGG | 0.979
TTGTCTTATT | 1.04
TTGTGATTGA | 1.04
TTGTGGTAGA | 1.03
TTGTGTAG | 0.994
TTGTGTCCGC | 1.95
TTGTGTGGCC | 0.944
TTGTTCAGGC | 0.987

Sequence | switch fluorescence ratio
TTGTTCAGGT | 0.983
TTGTTCCTA | 0.97
TTGTTGTTGA | 1.01
TTGTTGTTGC | 1.04
TTGTTTAGTT | 1.01
TTGTTTATTA | 0.945
TTGTTTCGAA | 0.986
TTGTTTG | 1.02
TTGTTTGAAG | 1
TTGTTTTGCG | 1.01
TTTAAATACT | 1.25
TTTAACGCGA | 1.07
TTTAACGCTC | 1.04
TTTAAGAT | 0.942
TTTAAGGCTT | 0.985
TTTAAGTTCG | 1.01
TTTAATACC | 1.03
TTTAATCTAG | 1.02
TTTAATGACC | 1.06
TTTAATGTGT | 0.964
TTTACACTTC | 0.971
TTTACAGGGC | 1.06
TTTACATACA | 1.22
TTTACATGAC | 1.11
TTTACCATTA | 1
TTTACGCCCT | 1.11

Sequence | switch fluorescence ratio
TTTACGCTTT | 1.04
TTTACGGCGA | 1.6
TTTACTACCT | 1.43
TTTACTCTGC | 1.38
TTTACTTTAG | 1.01
TTTACTTTCT | 1.03
TTTAGACATA | 1.02
TTTAGACCTA | 1.03
TTTAGAGTAC | 1.06
TTTAGCGACA | 0.998
TTTAGGAGAT | 1.02
TTTAGGAGT | 1.02
TTTAGGTCTG | 1.02
TTTAGTTCTA | 0.972
TTTATAACTT | 1
TTTATACTTA | 1.05
TTTATATTGA | 0.967
TTTATCGAAC | 1.03
TTTATGCGCT | 1.02
TTTATGGTCG | 0.934
TTTATGTAT | 0.977
TTTATGTCCT | 0.973
TTTATTAGAG | 0.973
TTTCAAAGTG | 1.03
TTTCACAAAT | 1
TTTCACTGG | 1

Sequence | switch fluorescence ratio
TTTCACTTTC | 1.1
TTTCAGACTA | 1
TTTCAGAGGC | 0.981
TTTCAGCGAC | 2.29
TTTCATGAAG | 0.977
TTTCATGGA | 1.01
TTTCCAGTTA | 1
TTTCCCGATA | 1.01
TTTCCGCGGG | 1.05
TTTCCTCCAT | 3.6
TTTCCTCGTG | 0.985
TTTCCTGCCT | 1.16
TTTCGAAGGA | 1.02
TTTCGAATGG | 0.997
TTTCGACAGC | 1.13
TTTCGATCAT | 0.969
TTTCGGCCCA | 0.967
TTTCGGGCG | 1.09
TTTCGTAAGT | 1.02
TTTCGTACAT | 1.03
TTTCGTGATC | 2.79
TTTCGTTAGG | 1.01
TTTCTACGAT | 1.04
TTTCTACGTC | 1.09
TTTCTACTTC | 1.03
TTTCTCAATA | 2.26

Sequence | switch fluorescence ratio
TTTCTCGGGA | 1.05
TTTCTGGAGT | 1.87
TTTCTTATCA | 1.02
TTTCTTCACG | 0.934
TTTGAAAGAC | 1.31
TTTGAACGTA | 1.03
TTTGAAGCCA | 2.47
TTTGAATTGT | 1.03
TTTGACCAAG | 1.03
TTTGACTAAA | 1.01
TTTGAGAGGA | 1.01
TTTGAGTAGC | 0.953
TTTGATTCCG | 0.965
TTTGCACATC | 1.6
TTTGCATCGA | 1.03
TTTGCCCAGG | 3.93
TTTGCCGAAA | 1.01
TTTGCGGGAG | 1
TTTGCTAGCC | 0.982
TTTGCTATCC | 1.14
TTTGCTATCG | 0.945
TTTGCTATGA | 0.978
TTTGCTGTGA | 0.992
TTTGGAATCT | 1
TTTGGAGAGT | 1.01
TTTGGATAAG | 0.965

Sequence | switch fluorescence ratio
TTTGGCAA | 1.1
TTTGGCCACT | 1.04
TTTGGCCATC | 0.998
TTTGGCCCAC | 1.01
TTTGGGGATA | 1.03
TTTGGTAACC | 0.981
TTTGGTAAT | 0.955
TTTGGTGGCG | 0.997
TTTGGTGTCG | 1.03
TTTGGTGTGG | 0.966
TTTGTAAGCG | 1.04
TTTGTAAGGA | 1.12
TTTGTAATAT | 1.12
TTTGTACTG | 0.951
TTTGTAGTGA | 1.05
TTTGTATAAT | 0.981
TTTGTCCTAG | 0.999
TTTGTCTAAG | 1.01
TTTGTCTCCA | 1
